Here are results for 49 molecules from PubChem BioAssay AID1508642 (National Center for Advancing Translational Sciences (NCATS), 2021).

Structures are written as SMILES. Out of some 43,000 compounds screened, about 200 (0.47%) were called active. Another 12% or so got no clear call; they are omitted. Calls follow the shape of the dose curve; as a rule, active = well fitted cell-killing curve with a large enough effect; inconclusive = small, poorly fitted or top-dose-only effect, or effect the other way; inactive = flat fitted curve, though single readings scatter. This is one part of the list.
% is scaled to controls: 0 for no effect and ±100 for the full control effect.

A short description of the assay: Cell viability qHTS assay in S16 Pmp22-F2sN cells. Also: nearly all actives have a fitted effect of over 65% in size. As to conditions: S16 Pmp22-F2sN Schwann cells viability, CellTiter-Glo, 24 h; series mostly up to 57.5 µM; activity change, negative = cytotoxicity: at the top concentration. The method, boiled down: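 Viability was measured by CellTiter-Glo luminescence (15 min, room temperature). This followed 24 h at 37 °C of compound exposure (23 nL pin transfer) in S16 Pmp22-F2sN Schwann cells, 500-1,000 per well.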
(In general: In qHTS, concentration-response curves come from the screen itself.)
Consider `COc1cc(C(=O)Nc2ccc3oc(-c4ccccc4)nc3c2)cc(OC)c1OC`, for which the “activity change, negative = cytotoxicity” value was inactive: -23.4%.

As to `CN(C(=O)CSc1nc2c(c(=O)[nH]1)CCCC2)c1ccccc1`, the “activity change, negative = cytotoxicity” value is inactive: -4.12%. Take `CCOc1ccccc1NC(=O)C1CCN(S(=O)(=O)c2ccccc2)CC1`: the “activity change, negative = cytotoxicity” value was inactive: -3.86%.

In the case of `COc1ccc(-c2nc(SCC(=O)Nc3ccc4c(c3)OCO4)c(-c3ccc(OC)cc3)[nH]2)cc1`, the “activity change, negative = cytotoxicity” value was inactive: 3.1%. For `CCOc1ccc(S(=O)(=O)N2CCN(c3c(C)cccc3C)CC2)c2ccccc12`, the “activity change, negative = cytotoxicity” value was inactive: -1.51%. The value for `CC(NC(=O)Nc1ccccc1C(F)(F)F)c1c(-n2cccc2)sc2c1CCCC2` (centres undefined) was inactive: -17.6%.

Regarding `COc1ccccc1CNC(=O)Cn1ncc2c3ccccc3n(Cc3ccccc3C)c2c1=O`, the “activity change, negative = cytotoxicity” value is inactive: 9.57%.

On to `CCOC(=O)c1ccc(NS(=O)(=O)c2ccc(Br)s2)cc1`, for which the “activity change, negative = cytotoxicity” value was inactive: 0.349%.

On to `COc1ccccc1NC(=O)CSc1oc(-c2cccs2)nc1S(=O)(=O)c1ccc(Br)cc1`, for which the “activity change, negative = cytotoxicity” value was inactive: 2.77%. Consider `Cc1cc(C)cc(OC(=O)c2snnc2C)c1`, for which the “activity change, negative = cytotoxicity” value is inactive: -15.9%.

Turning to `O=C(Cc1ccccc1)Nc1sc2c(c1C(=O)Nc1ccc(Cl)cc1)CCCC2`, the “activity change, negative = cytotoxicity” value is inactive: -18.8%.

Consider `O=C(NCCc1csc(-c2cccc(F)c2)n1)c1cccs1`, for which the “activity change, negative = cytotoxicity” value was inactive: 0.536%.

On to `Cc1cccc(NC(=O)CSc2nc3c([nH]c4ccccc43)c(=O)n2C)c1C`, for which the “activity change, negative = cytotoxicity” value was inactive: 16.9%.

Consider `N#C/C(=C\c1ccc(Cl)cc1)c1nc2ccccc2[nH]1`, for which the “activity change, negative = cytotoxicity” value is inactive: 18.5%. The value for `O=C(NC1CCN(Cc2ccccc2)CC1)c1ccc(Cn2c(=O)c3ccccc3n(Cc3ccccc3)c2=O)cc1` was inactive: 5.79%; that for `Cc1ccc(-c2nc(-c3cc4cccc(OCc5cccc(C)c5)c4oc3=O)no2)cc1` was inactive: -2.52%; that for `CCOC(=O)c1ccc(NC(=O)c2ncn(-c3ccccc3)n2)cc1` was inactive: 0.134%. In the case of `COc1ccc(N2CCN(C(=O)CCn3c(=O)c4cccn4c4cccnc43)CC2)cc1`, the “activity change, negative = cytotoxicity” value is inactive: 7.62%. Regarding `CC(NC(=O)Nc1cc(Cl)ccc1Cl)c1c(-n2cccc2)sc2c1CCCC2` (centres undefined), the “activity change, negative = cytotoxicity” value was inactive: -5.11%. The value for `CCN(CC)c1ccc(C(=O)N2CCC(c3c[nH]c4ccccc34)(c3c[nH]c4ccccc34)CC2)cc1` was inactive: -4.69%; that for `Cc1ccc(CNC(=O)c2ccc(-n3cnc4cccnc43)cc2)cc1` was inactive: -4.19%.

`CCc1ccc(NC(=O)Cn2c3ncccc3c(=O)n2-c2ccc(C)c(C)c2)cc1`: the “activity change, negative = cytotoxicity” value was inactive: 2.73%.

Turning to `Cc1ccc(NC(=O)/C(C#N)=C/c2cc(C)n(-c3ccc(F)cc3)c2C)cc1C`, the “activity change, negative = cytotoxicity” value was inactive: 16.4%.

On to `O=C(c1ccc2c(c1)N(Cc1ccccc1F)C(=O)c1ccccc1S2=O)N1CCN(c2ccccc2)CC1` (centres undefined), for which the “activity change, negative = cytotoxicity” value was inactive: 6.06%.

As to `CCc1c(C)nc2nncn2c1Nc1ccc(C(C)C)cc1`, the “activity change, negative = cytotoxicity” value is inactive: -6.59%. Turning to `COc1cc(Nc2nc3ccccc3c3nnc(C)n23)cc(OC)c1`, the “activity change, negative = cytotoxicity” value is inactive: 4.85%. In the case of `CCCCN1CCCc2cc(CN(CCCN3CCOCC3)C(=O)Nc3ccc(OCC)cc3)ccc21`, the “activity change, negative = cytotoxicity” value is inactive: -13.3%. Consider `COc1ccc(C)cc1Nc1c2c(nc3nc(-c4cccs4)nn13)CCCC2`, for which the “activity change, negative = cytotoxicity” value was inactive: -5.19%.

In the case of `COc1cccc(CN2CCc3nc(SCC(=O)Nc4ccccc4)[nH]c(=O)c3C2)c1`, the “activity change, negative = cytotoxicity” value was inactive: 7.82%. `Cc1ccccc1NS(=O)(=O)c1nnc(NC(=O)c2ccccc2C)s1`: the “activity change, negative = cytotoxicity” value is inactive: -8.04%. In the case of `O=S(=O)(NCCS(=O)(=O)N1CCN(c2ccccc2F)CC1)c1ccc(Cl)cc1`, the “activity change, negative = cytotoxicity” value is inactive: 17.9%. `Cc1ccc(NC(=O)N2CCc3cc(S(=O)(=O)N4CCC(C)CC4)ccc32)cc1C`: the “activity change, negative = cytotoxicity” value is inactive: -3.1%. For `CCOC(=O)c1ccc(Nc2ncnc3c2cnn3-c2cccc(Cl)c2)cc1`, the “activity change, negative = cytotoxicity” value was inactive: 4.64%. For `CCN(C(=O)c1cc2c(s1)-c1ccccc1OC2)c1cc(Cl)ccc1OC`, the “activity change, negative = cytotoxicity” value was inactive: -25%. Regarding `Cc1ccccc1-c1nc(CS(=O)(=O)CC(=O)NCc2cccc(Cl)c2)c(C)o1`, the “activity change, negative = cytotoxicity” value is inactive: 25.3%. With `Cc1ccc(N2CC(C(=O)Nc3ccc(Br)cc3)CC2=O)cc1` (centres undefined), the “activity change, negative = cytotoxicity” value is inactive: -12.5%. Consider `COc1ccc(-n2ncc3c(NCCC4=CCCCC4)ncnc32)cc1`, for which the “activity change, negative = cytotoxicity” value is inactive: -0.365%. As to `C=Cc1ccc(CN2C(=O)N(c3cccc(Cl)c3)S(=O)(=O)c3ccccc32)cc1`, the “activity change, negative = cytotoxicity” value is inactive: 6.42%. The value for `COc1ccc(C(=O)n2nc(-c3ccco3)nc2NCc2cccs2)cc1` was inactive: -1.48%; that for `COc1ccccc1C(=O)NCCn1cc(SCc2ccccc2Cl)c2ccccc21` was inactive: 22.9%; that for `COc1ccccc1C(=O)Nc1nc(-c2ccccc2)ns1` was inactive: 7.23%. On to `CCc1ccc(-c2nn(CC(=O)NC3CCCC3)c3c2cnc2ccc(F)cc23)cc1`, for which the “activity change, negative = cytotoxicity” value is inactive: 17.7%. On to `COC(=O)c1ccccc1NC(=O)Cn1nnc2sc(-c3ccccc3)cc2c1=O`, for which the “activity change, negative = cytotoxicity” value was inactive: -0.432%. The value for `CCOc1ccccc1NC(=O)NCCn1c(=O)oc2ccc(C)cc21` was inactive: 4.83%; that for `COc1ccccc1CNS(=O)(=O)c1cc2c3c(c1)CCN3C(=O)CC2` was inactive: 3.12%; that for `COc1ccc(-c2nc(-c3ccccc3)c(-c3ccc(O)cc3)[nH]2)cc1` was inactive: -14.2%.

`COc1ccc(OC)c(CNC(=O)CCn2c(=O)c3cccn3c3ccc(F)cc32)c1`: the “activity change, negative = cytotoxicity” value is inactive: 3.99%. On to `O=C(/C=C/c1ccc(F)cc1)Nc1nc2n(n1)C(c1ccc(Cl)cc1)C=C(c1ccccc1)N2` (centres undefined), for which the “activity change, negative = cytotoxicity” value is inactive: -6.05%. `COc1ccc(Cn2c(C(=O)O)c(CNC3CCCCCC3)c3ccc(OC)cc32)cc1`: the “activity change, negative = cytotoxicity” value was inactive: 3.1%.
